Results taken from the supplement of paper PMC8728848.
The list shows a part of the results.

Assays:
Assay in all cases: glycan array binding signal (z-score within array); higher = stronger binding
Details in all cases: glycan notation: IUPAC condensed, linker removed
Fuc(a1-2)Gal = target: Fuc(a1-2)Gal
Outline: (§1)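 Arrays were curated from the Consortium for Functional Glycomics database, 3228 in total, and kept only where the protein sequence was available. Binding is expressed as a within-array Z-score. This score was averaged across arrays of the same protein sequence at different concentrations or buffers and across linkers, and negative values can be read as non-binding.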

Fuc(a1-2)Gal(b1-3)GalNAc = target: Fuc(a1-2)Gal(b1-3)GalNAc
Outline: as §1

[1] = target: Fuc(a1-2)Gal(b1-3)GalNAc(a1-3)[Fuc(a1-2)]Gal(b1-4)Glc
Outline: as §1

[2] = target: Fuc(a1-2)Gal(b1-3)GalNAc(a1-3)[Fuc(a1-2)]Gal(b1-4)GlcNAc
Outline: as §1

[3] = target: Fuc(a1-2)Gal(b1-3)GalNAc(b1-3)Gal
Outline: as §1

[4] = target: Fuc(a1-2)Gal(b1-3)GalNAc(b1-3)Gal(a1-4)Gal(b1-4)Glc
Outline: as §1

[5] = target: Fuc(a1-2)Gal(b1-3)GalNAc(b1-4)[Neu5Ac(a2-3)]Gal(b1-4)Glc
Outline: as §1

Fuc(a1-2)Gal(b1-3)GlcNAc = target: Fuc(a1-2)Gal(b1-3)GlcNAc
Outline: as §1

[6] = target: Fuc(a1-2)Gal(b1-3)GlcNAc(b1-2)Man(a1-3)[Fuc(a1-2)Gal(b1-3)GlcNAc(b1-2)Man(a1-6)]Man(b1-4)GlcNAc(b1-4)GlcNAc
Outline: as §1

[7] = target: Fuc(a1-2)Gal(b1-3)GlcNAc(b1-2)Man(a1-3)[Fuc(a1-2)Gal(b1-3)GlcNAc(b1-2)Man(a1-6)]Man(b1-4)GlcNAc(b1-4)[Fuc(a1-6)]GlcNAc
Outline: as §1

[8] = target: Fuc(a1-2)Gal(b1-3)GlcNAc(b1-3)Gal(b1-4)Glc
Outline: as §1

[9] = target: Fuc(a1-2)Gal(b1-3)GlcNAc(b1-3)GalNAc
Outline: as §1

[10] = target: Fuc(a1-2)Gal(b1-3)GlcNAc(b1-3)[Fuc(a1-2)Gal(b1-3)GlcNAc(b1-6)]GalNAc
Outline: as §1

[11] = target: Fuc(a1-2)Gal(b1-3)GlcNAc(b1-3)[Gal(b1-4)GlcNAc(b1-6)]Gal(b1-4)Glc
Outline: as §1

[12] = target: Fuc(a1-2)Gal(b1-3)GlcNAc(b1-3)[Neu5Ac(a2-6)Gal(b1-4)GlcNAc(b1-6)]Gal(b1-4)Glc
Outline: as §1

[13] = target: Fuc(a1-2)Gal(b1-3)GlcNAc6S
Outline: as §1

[14] = target: Fuc(a1-2)Gal(b1-3)[Fuc(a1-4)]GlcNAc
Outline: as §1

[15] = target: Fuc(a1-2)Gal(b1-3)[Fuc(a1-4)]GlcNAc(b1-2)Man(a1-3)[Fuc(a1-2)Gal(b1-3)[Fuc(a1-4)]GlcNAc(b1-2)Man(a1-3)]Man(b1-4)GlcNAc(b1-4)GlcNAc
Outline: as §1

[16] = target: Fuc(a1-2)Gal(b1-3)[Fuc(a1-4)]GlcNAc(b1-2)Man(a1-3)[Fuc(a1-2)Gal(b1-3)[Fuc(a1-4)]GlcNAc(b1-2)Man(a1-6)]Man(b1-4)GlcNAc(b1-4)[Fuc(a1-6)]GlcNAc(b1-4)[Fuc(a1-6)]GlcNAc
Outline: as §1

[17] = target: Fuc(a1-2)Gal(b1-3)[Fuc(a1-4)]GlcNAc(b1-3)[Fuc(a1-3)[Gal(b1-4)]GlcNAc(b1-6)]Gal(b1-4)Glc
Outline: as §1

[18] = target: Fuc(a1-2)Gal(b1-3)[Fuc(a1-4)]GlcNAc(b1-3)[Gal(b1-4)GlcNAc(b1-6)]Gal(b1-4)Glc
Outline: as §1

Fuc(a1-2)Gal(b1-4)Glc = target: Fuc(a1-2)Gal(b1-4)Glc
Outline: as §1

Fuc(a1-2)Gal(b1-4)Glc6S = target: Fuc(a1-2)Gal(b1-4)Glc6S
Outline: as §1

Fuc(a1-2)Gal(b1-4)GlcNAc = target: Fuc(a1-2)Gal(b1-4)GlcNAc
Outline: as §1

[19] = target: Fuc(a1-2)Gal(b1-4)GlcNAc(b1-2)Man
Outline: as §1

[20] = target: Fuc(a1-2)Gal(b1-4)GlcNAc(b1-2)Man(a1-3)[Fuc(a1-2)Gal(b1-4)GlcNAc(b1-2)Man(a1-6)]Man(b1-4)GlcNAc(b1-4)GlcNAc
Outline: as §1

[21] = target: Fuc(a1-2)Gal(b1-4)GlcNAc(b1-2)Man(a1-3)[Fuc(a1-2)Gal(b1-4)GlcNAc(b1-2)Man(a1-6)]Man(b1-4)GlcNAc(b1-4)[Fuc(a1-6)]GlcNAc
Outline: as §1

[22] = target: Fuc(a1-2)Gal(b1-4)GlcNAc(b1-2)[Fuc(a1-2)Gal(b1-4)GlcNAc(b1-4)]Man(a1-3)[Fuc(a1-2)Gal(b1-4)GlcNAc(b1-2)Man(a1-6)]Man(b1-4)GlcNAc(b1-4)GlcNAc
Outline: as §1

[23] = target: Fuc(a1-2)Gal(b1-4)GlcNAc(b1-3)Gal(b1-4)GlcNAc
Outline: as §1

[24] = target: Fuc(a1-2)Gal(b1-4)GlcNAc(b1-3)Gal(b1-4)GlcNAc(b1-2)Man(a1-3)[Fuc(a1-2)Gal(b1-4)GlcNAc(b1-3)Gal(b1-4)GlcNAc(b1-2)Man(a1-6)]Man(b1-4)GlcNAc(b1-4)GlcNAc
Outline: as §1

B1: SP16663B-bot-321-25-321 (Bacteroides ovatus) (protein)
chain: DDDDEVTMNSKFYLSTKVFPVDSYEASLSVILKDNSVVVNELQPNYRFVACATERLSKDVKITADSDDNLVSAYNKANDTEYNILPAENYSFTNKTVTIENGESVSGDSIKIELLNVGSLTTEGGYLLPVTISSIEGNNLDALSSNRGVVYLKIQNIHVNVESGQPAEGTLIADRSGWTVKVAPTTRGDAKNLIDGTNSDVARDGGAEYWLTVDIGKVQTLTGIRNKCYASSYSPTAVEVFTSSDGAKWKSIGAVTISKSGTQYIKFSKAVETRYLKYYVKQGPNTVSLTEFDLYAK
**Q.** For B1, which “glycan array binding signal (z-score)” value (Fuc(a1-2)Gal) is on record?
**A.** -0.178

**Q.** What about the “glycan array binding signal (z-score)” value (Fuc(a1-2)Gal(b1-3)GalNAc) of the same binder?
**A.** -0.504

**Q.** What about the “glycan array binding signal (z-score)” value [1] of the same binder?
**A.** -0.032

**Q.** And the “glycan array binding signal (z-score)” value [2]?
**A.** -0.326

**Q.** And the “glycan array binding signal (z-score)” value [3]?
**A.** 0.012

**Q.** And the “glycan array binding signal (z-score)” value [4]?
**A.** -0.417

**Q.** And the “glycan array binding signal (z-score)” value [5]?
**A.** -0.508

**Q.** And the “glycan array binding signal (z-score)” value (Fuc(a1-2)Gal(b1-3)GlcNAc)?
**A.** -0.292

**Q.** What about the “glycan array binding signal (z-score)” value [6] of the same binder?
**A.** 0.67

**Q.** What about the “glycan array binding signal (z-score)” value [7] of the same binder?
**A.** -0.336

**Q.** And the “glycan array binding signal (z-score)” value [8]?
**A.** -0.29

**Q.** And the “glycan array binding signal (z-score)” value [9]?
**A.** -0.546

**Q.** What about the “glycan array binding signal (z-score)” value [10] of the same binder?
**A.** 0.048

**Q.** And the “glycan array binding signal (z-score)” value [11]?
**A.** 0.3

**Q.** And the “glycan array binding signal (z-score)” value [12]?
**A.** -0.267

**Q.** What about the “glycan array binding signal (z-score)” value [13] of the same binder?
**A.** 0.413

**Q.** What about the “glycan array binding signal (z-score)” value [14] of the same binder?
**A.** -0.607

**Q.** What about the “glycan array binding signal (z-score)” value [15] of the same binder?
**A.** 0.013

**Q.** What about the “glycan array binding signal (z-score)” value [16] of the same binder?
**A.** 0.087

**Q.** And the “glycan array binding signal (z-score)” value [17]?
**A.** -0.301

**Q.** What about the “glycan array binding signal (z-score)” value [18] of the same binder?
**A.** 0.147

**Q.** And the “glycan array binding signal (z-score)” value (Fuc(a1-2)Gal(b1-4)Glc)?
**A.** -0.653

**Q.** What about the “glycan array binding signal (z-score)” value (Fuc(a1-2)Gal(b1-4)Glc6S) of the same binder?
**A.** 0.166

**Q.** And the “glycan array binding signal (z-score)” value (Fuc(a1-2)Gal(b1-4)GlcNAc)?
**A.** -0.156

**Q.** What about the “glycan array binding signal (z-score)” value [19] of the same binder?
**A.** -0.223

**Q.** What about the “glycan array binding signal (z-score)” value [20] of the same binder?
**A.** -0.251

**Q.** And the “glycan array binding signal (z-score)” value [21]?
**A.** -0.311

**Q.** What about the “glycan array binding signal (z-score)” value [22] of the same binder?
**A.** -0.623

**Q.** And the “glycan array binding signal (z-score)” value [23]?
**A.** -0.487

**Q.** What about the “glycan array binding signal (z-score)” value [24] of the same binder?
**A.** 0.005
